Laboratory results as given in the supplement of paper PMC10369915.
Some of the results follow. Cut-off read from the data, not from the text of the source: active = 3.2 or more and inactive = the rest. Only a few entries rise above the background.

Legend:
Assay in all cases: enrichment score (SH2-bound / input frequency) (ratio); bacterial display of known human phosphotyrosine sites (pTyr-Var adds point mutants) read by sequencing; higher = stronger binding; tyrosines were phosphorylated by kinases first
Settings in all cases: peptide library: pTyr-Var
SHP2 C-SH2 domain E139D = biological target: SHP2 C-SH2 domain E139D
[1] = biological target: SHP2 C-SH2 domain wild-type
SHP2 N-SH2 domain L43F = biological target: SHP2 N-SH2 domain L43F
SHP2 N-SH2 domain T42A = biological target: SHP2 N-SH2 domain T42A
SHP2 N-SH2 domain T52S = biological target: SHP2 N-SH2 domain T52S
[2] = biological target: SHP2 N-SH2 domain wild-type
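Note: displayed peptides selected on beads carrying the immobilized SH2 domain, with library peptides lacking any tyrosine serving as negative controls.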

| Binder | enrichment score (SHP2 C-SH2 domain E139D) | enrichment score [1] | enrichment score (SHP2 N-SH2 domain L43F) | enrichment score (SHP2 N-SH2 domain T42A) | enrichment score (SHP2 N-SH2 domain T52S) | enrichment score [2] |
| --- | --- | --- | --- | --- | --- | --- |
| KLNNEYLELNY [MME_Y497] | inactive: 0.992 | inactive: 0.671 | inactive: 0.863 | inactive: 1.31 | inactive: 0.705 | inactive: 0.819 |
| QVMDGYPMPIG [MMP14_Y353] | inactive: 0.943 | inactive: 0.887 | inactive: 0.57 | inactive: 0.544 | inactive: 0.783 | inactive: 0.66 |
| LGRTRYQDVTG [MIPEP_Y510_H512D] | inactive: 0.743 | inactive: 0.589 | inactive: 0.843 | inactive: 0.651 | inactive: 0.642 | inactive: 0.771 |
| QLQVFYATLDQ [MIPEP_Y579] | inactive: 2.2 | inactive: 2.89 | active: 3.88 | active: 11.7 | active: 5.99 | inactive: 1.74 |
| HLLRIYFDITD [MMP27_Y307_W304L_YF] | inactive: 1.13 | inactive: 1.76 | inactive: 1.35 | inactive: 1.44 | inactive: 1.44 | inactive: 1.9 |
| TPRNTYKMTSV [MKI67_Y849_L854V] | inactive: 0.542 | inactive: 0.575 | inactive: 0.628 | inactive: 0.498 | inactive: 0.451 | inactive: 0.63 |
| YLENYYDLEKD [MMP3_Y42_K45E] | inactive: 1.04 | inactive: 0.983 | inactive: 1.29 | inactive: 0.861 | inactive: 0.93 | inactive: 1.26 |
| KYLENYYDLKK [MMP3_Y41] | inactive: 1.17 | inactive: 1.27 | inactive: 0.786 | inactive: 0.954 | inactive: 0.79 | inactive: 1.3 |
| TTIVSYRASQP [MKI67_Y1737_K1734I] | inactive: 0.933 | inactive: 0.791 | inactive: 0.808 | inactive: 0.638 | inactive: 0.924 | inactive: 0.745 |
| KERNQYGEVMV [MMP21_Y347] | inactive: 0.628 | inactive: 0.651 | inactive: 0.648 | inactive: 0.539 | inactive: 0.678 | inactive: 0.608 |
| KLNNEYLELNF [MME_Y497_YF] | inactive: 1.11 | inactive: 0.95 | inactive: 2.55 | active: 4.4 | inactive: 3.03 | inactive: 1.09 |
| KFLENYFDLKK [MMP3_Y41_YF] | inactive: 1.75 | inactive: 1.71 | inactive: 1.83 | inactive: 1.89 | inactive: 1.84 | inactive: 2.17 |
| HLNLTYRILSF [MMP23B_Y95_F91L] | inactive: 0.389 | inactive: 0.528 | inactive: 0.674 | inactive: 0.785 | inactive: 0.697 | inactive: 0.692 |
| IDFARYWHGDD [MMP11_Y162] | inactive: 1 | inactive: 0.676 | inactive: 0.809 | inactive: 0.907 | inactive: 1 | inactive: 0.771 |
| ASFSLYEPAKM [MKI67_Y340_P338S] | inactive: 1.29 | inactive: 1.09 | inactive: 1.18 | inactive: 1.04 | inactive: 1.21 | inactive: 1.68 |
| EVVGRYSGHNA [MLH1_Y183_V185G] | inactive: 0.436 | inactive: 0.571 | inactive: 0.474 | inactive: 0.633 | inactive: 0.682 | inactive: 0.81 |
| EGWQVYRLGTR [MISP_Y95_A99T] | inactive: 0.565 | inactive: 0.557 | inactive: 0.477 | inactive: 0.499 | inactive: 0.549 | inactive: 0.545 |
| YLELNYKEDEY [MME_Y502] | inactive: 0.701 | inactive: 1.23 | active: 3.26 | active: 6.33 | active: 3.61 | inactive: 1.15 |
| EVVGRYSVHFA [MLH1_Y183_N187Y_YF] | inactive: 1.05 | inactive: 1.03 | inactive: 1.13 | inactive: 0.926 | inactive: 0.957 | inactive: 0.943 |

| Binder | enrichment score (SHP2 C-SH2 domain E139D) | enrichment score [1] | enrichment score (SHP2 N-SH2 domain L43F) | enrichment score (SHP2 N-SH2 domain T42A) | enrichment score (SHP2 N-SH2 domain T52S) | enrichment score [2] |
| --- | --- | --- | --- | --- | --- | --- |
| KTVQDYLKKFY [MMP8_Y36_E38K] | inactive: 0.857 | inactive: 0.638 | inactive: 0.601 | inactive: 0.681 | inactive: 0.764 | inactive: 0.797 |
| HLLRIYYDITD [MMP27_Y307_W304L] | inactive: 1.66 | inactive: 2.09 | inactive: 2.02 | inactive: 1.72 | inactive: 1.83 | inactive: 2.56 |
| SSDKVYAHQMV [MLH1_Y379] | inactive: 0.653 | inactive: 0.528 | inactive: 0.557 | inactive: 0.585 | inactive: 0.6 | inactive: 0.576 |
| HFNLTYRILSF [MMP23B_Y95] | inactive: 0.576 | inactive: 0.693 | inactive: 0.644 | inactive: 0.604 | inactive: 0.675 | inactive: 0.695 |
| KIVQDYLEKFY [MMP8_Y36_T32I] | inactive: 1.31 | inactive: 1.05 | inactive: 1.2 | inactive: 1.06 | inactive: 1.16 | inactive: 1.3 |
| ASFPLYEPAKM [MKI67_Y340] | inactive: 0.885 | inactive: 0.591 | inactive: 0.754 | inactive: 0.685 | inactive: 0.818 | inactive: 0.76 |
| TTKVSYRASQP [MKI67_Y1737] | inactive: 0.728 | inactive: 0.784 | inactive: 0.692 | inactive: 0.714 | inactive: 0.611 | inactive: 0.692 |
| KLNNEHLELNF [MME_Y497_Y497H_YF] | inactive: 0.873 | inactive: 0.643 | inactive: 0.709 | inactive: 0.718 | inactive: 0.86 | inactive: 0.803 |
| SSDKVCAHQMV [MLH1_Y379_Y379C] | inactive: 1.24 | inactive: 1.21 | inactive: 1.05 | inactive: 0.965 | inactive: 1.13 | inactive: 1.12 |
| KTVQDYLEKFY [MMP8_Y36] | inactive: 1.2 | inactive: 1.21 | inactive: 0.987 | inactive: 1.27 | inactive: 1.29 | inactive: 1.11 |
| THPFLYLTLEI [MLH1_Y293_S295T] | inactive: 2.22 | inactive: 2.85 | inactive: 2.03 | inactive: 1.67 | inactive: 1.43 | inactive: 2.79 |
| HLELNYKEDEF [MME_Y502_Y497H_YF] | inactive: 1.02 | inactive: 0.848 | inactive: 1.03 | inactive: 0.532 | inactive: 0.838 | inactive: 0.578 |
| KIVQDYLEKFF [MMP8_Y36_T32I_YF] | inactive: 2.49 | inactive: 2.1 | inactive: 2.33 | inactive: 2.4 | inactive: 2.25 | inactive: 1.99 |
| IDFARYWHGND [MMP11_Y162_D166N] | inactive: 1 | inactive: 0.867 | inactive: 0.863 | inactive: 0.973 | inactive: 0.93 | inactive: 0.819 |
| EVVGGYSVHNA [MLH1_Y183_R182G] | inactive: 0.804 | inactive: 0.544 | inactive: 0.627 | inactive: 0.418 | inactive: 0.622 | inactive: 0.73 |
| QLQVFYATRDQ [MIPEP_Y579_L582R] | inactive: 1.31 | inactive: 1.17 | inactive: 1.15 | inactive: 1.2 | inactive: 1.21 | inactive: 1.21 |
| KAPVDYIRKLQ [MITF_Y360_S357P] | inactive: 0.708 | inactive: 0.737 | inactive: 0.749 | inactive: 0.606 | inactive: 0.737 | inactive: 0.759 |
| TPRNTYKMTSL [MKI67_Y849] | inactive: 0.534 | inactive: 0.706 | inactive: 0.777 | inactive: 0.43 | inactive: 0.818 | inactive: 1.03 |
